# ChEMBL document CHEMBL4888484, “Replenishing the malaria drug discovery pipeline: Screening and hit evaluation of the MMV Hit Generation Library 1 (HGL1) against asexual blood stage Plasmodium falciparum ,using a nano luciferase reporter read-out” (2022)
# About 540 (0.36%) of roughly 150,000 compounds showed an effect of 50% or more. This is one part of the list.
# System: Plasmodium falciparum
# Assay: Primary screen in NF54 nanoGlo assay, in single point, at 2uM, 72h; a lower Z score goes with more inhibition
# Type: functional, Erythrocyte
# Details: timepoint 72 hour
Compound,% Inhibition,Z score
Fc1cnccc1N1CC[C@H]2[C@H](C1)OCc1cnnn12,-8%,1.56
O=C(N[C@H]1CC[C@H](O)CC1)N1CCC(c2cccc(O)c2)CC1,-8%,1.47
c1ccc2c(c1)CCCC2N1CCCC(Cn2cncn2)C1 (stereo not drawn),-9%,1.31
Cc1noc(C)c1CC(=O)N1CCC2(CC1)CC[C@]2(C)O,-13%,1.56
C[C@@H](C(=O)NCCc1ccccc1)S(C)(=O)=O,-4%,0.73
CNC(=O)[C@H]1CN(C)C[C@@H]1NS(=O)(=O)c1ccc(F)c(F)c1,-3%,0.43
CC(C)[C@H](CNc1ncc(Cl)cn1)N(C)C,-22%,2.36
CC(C)(C)OC(=O)N1CC(=C2NCCCN2)C1,-8%,1.05
CN(C)c1cccc(-c2cccc(-c3ccn(CCO)n3)c2)c1,-11%,0.97
O=S1(=O)C[C@H](CNC2CCC(F)(F)CC2)c2ccccc21,-14%,2.55
Cc1ccc(S(=O)(=O)N2CC=C(c3c(C)n(Cc4cccc(F)c4)c4ccccc34)CC2)cc1,10%,-1.29
CC1C(=O)C(C(=O)Nc2cccnc2)C(=O)N1Cc1ccccc1 (stereo not drawn),9%,-1.52
Cc1cn(C(C)(C)C(=O)N[C@@H](C)c2cc(Cl)cc3c2OCC3)cn1,6%,-0.98
Cc1csc(-c2cc(NC(=O)Cc3cccc(F)c3)c(C)s2)n1,-14%,1.32
O=c1nc2n(nc1-c1ccccc1)C1(CCCCC1)Nc1ccccc1-2,-10%,1.25
CC1=C[C@@H](CN2CCC(CO)CC2)[C@H](C(C)C)C[C@H]1Cc1nnc(-c2ccncc2)o1,26%,-2.94
O=C1C2ON(c3ccccc3)C(c3ccc(Cl)cc3Cl)C2C(=O)N1c1cccc(-c2ccccc2)c1 (stereo not drawn),-5%,0.5
CC(c1cnn(C)c1)c1nc(C2(C)C=CCCC2)no1 (stereo not drawn),-2%,0.43
CCOC(=O)c1cc(OCC)ccc1N,-6%,0.55
O=C(NCCc1cc(O)ncn1)c1ccc2nc(-c3ccccc3)cn2c1,-6%,0.8
CCn1cncc1CNS(=O)(=O)c1ccc(C(=O)NC2CC2)cc1,1%,-0.14
O=C(CCc1cccs1)NCC(C1CCOC1)N1CCOCC1 (stereo not drawn),-5%,0.58
CO[C@H]1C[C@@H](O)C12CCN(C(=O)c1ccc(C#N)cc1)CC2,-1%,0.24
O=S(=O)(Nc1ccnc2ccncc12)c1ccc(F)c(F)c1,-14%,1.42
C#CCN(C)[C@@H](C)c1nc(COC)no1,-11%,1.25
N#Cc1ccc(NCc2ccc3c(c2)OCO3)nc1,-15%,1.34
CC1CCC(NC(=O)[C@H]2c3cccn3CC(=O)N2Cc2ccccc2)CC1 (stereo partly drawn),-16%,2.12

Compound,% Inhibition,Z score
Cc1c([C@@H](NC(=O)c2ccc(=O)n(C)n2)C(C)C)oc2ccccc12,12%,-1.75
CCN(CC(=O)Nc1c(F)cccc1F)C(=O)c1cc(C)on1,-9%,1.21
CC(NC(=O)N1CCC(F)(F)C1)C(=O)N1c2ccccc2CC1C (stereo not drawn),-14%,2.18
Cc1cc(C)c(N2CC[C@H](NCc3csnn3)C2=O)c(C)c1,-2%,0.24
COc1cc(CN2C[C@H](C(=O)O)[C@@H](c3ccccc3OC)C2)cc(OC)c1,-10%,1.96
CC12CC(c3ccccc3O1)C(C(N)=O)C(=O)N2CCn1ccc2ccc(Cl)cc21 (stereo not drawn),-7%,0.87
Fc1cnc(-c2ccc3c(c2)OCO3)nc1N1CCOCC1,1%,-0.06
Cc1cc(NC(=O)c2cccc(=O)[nH]2)nn1[C@@H](C)C1CC1,-19%,2.47
CCN(CC)CC1CCN(C(=O)c2ccc3cc[nH]c3c2)CC1,2%,-0.27
COc1ccc(Cc2n[nH]c(C3CCN(C(C)C)CC3)n2)cc1OC,-10%,1.74
C#CC(CC)Oc1ccc(COC(=O)C(C)N(C)CC(F)(F)F)cc1 (stereo not drawn),1%,-0.2
Fc1ccc2ncnc(Oc3cccnc3)c2c1,33%,-3.77
CC(=O)c1c[nH]c(C(=O)Nc2ccc(N3CCN(C)CC3)c(Cl)c2)c1,19%,-2.19
Cc1ccc(CN2C(=O)COc3ccc(C(=O)N4CCN(c5ncccn5)CC4)cc32)cc1,-21%,2.77
O=C1NCCCn2cc(nn2)CC2(CCN(C(=O)CN3CCCCCC3=O)CC2)C(=O)N[C@H]1Cc1ccccc1,-16%,2.99
COc1ccc([C@H]2CC3(C)NC(=O)C2C(=O)N3)c(OC)c1,-6%,1.11
O=C(NCCn1cnc(-c2ccccc2)c1-c1ccncc1)c1cccnc1,-10%,1.6
O=S(=O)(c1ccc(F)cc1)N1CCC[C@H](CN2CCCC2)CC1,-4%,0.55
C[C@@H](CCc1ccccc1)NC(=O)C(=O)NC1CCCC1,-4%,0.65
CCc1nc2c(c(OC3CCN(C(=O)c4ccnn4CC)CC3)n1)CCOCC2,-7%,0.72
COc1ccc(CCNS(C)(=O)=O)c(Cl)c1,-14%,1.84
c1coc(-c2nc3c(c(N4CCOCC4)n2)CCN(CC2CC2)CC3)c1,3%,-0.43
Cc1nn(Cc2ccc(F)cc2)c(C)c1N1C(=O)CCC1=O,5%,-0.78
C#Cc1cccc(NC(=O)CN[C@H](CO)C(C)C)c1,-2%,0.4
CC(C)=CCN1CCN(C(=O)c2ccc(Cl)cn2)[C@H]2CS(=O)(=O)C[C@H]21,6%,-0.93
Cc1sc2ncnc(N3CCCCC3)c2c1C(=O)NCc1cccc(Cl)c1,37%,-0.95
O=C(NCCc1ccco1)c1ccc(Cl)o1,-18%,3.47
